# Results from the BET-seq Pho4 binding data (Le et al. 2018).
# The other results are listed elsewhere or left out. These are noisy estimates, calculated here from bound and input reads.
# Target: T1, Pho4 (S. cerevisiae) (UniProt P07270)
# T1 sequence: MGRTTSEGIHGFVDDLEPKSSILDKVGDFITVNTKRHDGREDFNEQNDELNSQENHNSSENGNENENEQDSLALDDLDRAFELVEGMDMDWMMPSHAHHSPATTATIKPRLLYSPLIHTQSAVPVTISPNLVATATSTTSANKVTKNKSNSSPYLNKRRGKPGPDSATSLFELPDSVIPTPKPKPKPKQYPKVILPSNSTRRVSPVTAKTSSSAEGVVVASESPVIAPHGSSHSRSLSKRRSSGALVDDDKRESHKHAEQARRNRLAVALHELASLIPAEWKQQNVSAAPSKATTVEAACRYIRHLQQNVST
# Test: relative binding free energy (BET-seq); higher = weaker binding
# Settings: reference: library average
row,Sequence,relative binding free energy
1,GTAGACACGTGTTTAT,0.06 kcal/mol
2,GGGTACACGTGTCTTT,0.03 kcal/mol
3,TGTTGCACGTGAGACT,0.14 kcal/mol
4,TTGTACACGTGGAGGC,0.14 kcal/mol
5,GTTCGCACGTGTTATT,0.03 kcal/mol
6,AGATTCACGTGTGTGT,0.2 kcal/mol
7,TTTTACACGTGCCTGT,0.01 kcal/mol
8,AGTTGCACGTGGATTG,0.01 kcal/mol
9,TCAGACACGTGTGGGT,0.04 kcal/mol
10,ACGATCACGTGGTGTG,0.09 kcal/mol
11,TAGGCCACGTGAATGG,0.23 kcal/mol
12,TGACTCACGTGTGAGT,0.29 kcal/mol
13,TTAACCACGTGGGAGG,-0.2 kcal/mol
14,GGATACACGTGGTCGT,0.14 kcal/mol
15,ATGATCACGTGGAGTG,0.06 kcal/mol
16,GATTACACGTGATTAT,0.4 kcal/mol
17,CGCTTCACGTGAAGTT,0.53 kcal/mol
18,TTGAACACGTGTGAAG,0.06 kcal/mol
19,TGATTCACGTGATTGT,0.35 kcal/mol
20,GATAGCACGTGGTTCG,0.05 kcal/mol
21,GGCGGCACGTGATGAT,0.05 kcal/mol
22,TGCGTCACGTGTTTGG,0.11 kcal/mol
23,TATAGCACGTGGAATG,-0.04 kcal/mol

row,Sequence,relative binding free energy
1,TTAATCACGTGTTACG,0.14 kcal/mol
2,TTTATCACGTGGGTCA,-0.06 kcal/mol
3,TGCATCACGTGGTTTG,0.13 kcal/mol
4,TTACGCACGTGACGGG,0.08 kcal/mol
5,AATCTCACGTGGTGGT,0.31 kcal/mol
6,AGCAGCACGTGTTGTT,-0.17 kcal/mol
7,TGGGGCACGTGAGGCC,0.19 kcal/mol
8,TATGACACGTGCGGTA,-0.08 kcal/mol
9,TTGGTCACGTGCATTA,0.12 kcal/mol
10,ATCGGCACGTGATGAG,0.1 kcal/mol
11,CTATTCACGTGTATTG,0.16 kcal/mol
12,GTTGGCACGTGCTATA,-0.07 kcal/mol
13,TGTAGCACGTGTAATA,0.01 kcal/mol
14,TATGGCACGTGTGGCT,-0.05 kcal/mol
15,TGGGGCACGTGAATTC,0.17 kcal/mol
16,GTGGACACGTGCGGGC,0 kcal/mol
17,TAGTGCACGTGCTTGT,-0.03 kcal/mol
18,TTAGTCACGTGGATCG,-0.02 kcal/mol
19,GGGTGCACGTGTGGTG,0.08 kcal/mol
20,AATGACACGTGGAATG,0.22 kcal/mol
21,TGCGCCACGTGTTGGT,0.03 kcal/mol
22,GAGGTCACGTGTTAGT,0.13 kcal/mol
23,ATTGACACGTGGAGGT,-0.07 kcal/mol

row,Sequence,relative binding free energy
1,GTAATCACGTGCGGGA,0.26 kcal/mol
2,GTGAACACGTGTAGAG,-0.02 kcal/mol
3,GGGAACACGTGTGTTG,0.08 kcal/mol
4,GGCATCACGTGTTATG,0.22 kcal/mol
5,GGTTGCACGTGAAATA,0.28 kcal/mol
6,AAGGTCACGTGTCAGA,0.32 kcal/mol
7,GCTGTCACGTGAGGTA,0.34 kcal/mol
8,GTTGGCACGTGGTTAA,-0.14 kcal/mol
9,AATCACACGTGTAGGG,0.26 kcal/mol
10,GTAGTCACGTGTTATG,0.26 kcal/mol
11,GTTACCACGTGCGGTT,-0.04 kcal/mol
12,TTATTCACGTGGTTTG,0.2 kcal/mol
13,GGTGTCACGTGTATCG,0.22 kcal/mol
14,CGTTTCACGTGAGTAT,0.35 kcal/mol
15,TATGGCACGTGGATAT,-0.02 kcal/mol
16,TGTACCACGTGTCGGG,0.04 kcal/mol
17,ATGTTCACGTGAGATT,0.39 kcal/mol
18,GTGAACACGTGTAAGG,0.18 kcal/mol
19,TTTATCACGTGTATAA,0.13 kcal/mol
20,GGGTGCACGTGTAAGC,0.11 kcal/mol
21,CGGTTCACGTGGCGGG,0.15 kcal/mol
22,CAGGTCACGTGGGTGT,-0.01 kcal/mol
23,CTGGGCACGTGAAGAT,0.11 kcal/mol

row,Sequence,relative binding free energy
1,TCTGGCACGTGTGGGG,-0.16 kcal/mol
2,GTGTTCACGTGTCTGA,0.19 kcal/mol
3,GGATGCACGTGACGGT,0.07 kcal/mol
4,AGGCACACGTGATGGT,0.1 kcal/mol
5,ACTGACACGTGGGTGG,-0.22 kcal/mol
6,GTGGACACGTGGGAAG,0.04 kcal/mol
7,TTATGCACGTGTATGC,0.17 kcal/mol
8,TAGGCCACGTGAGTAG,0.16 kcal/mol
9,CGTCGCACGTGGTGTA,-0.08 kcal/mol
10,GTGAACACGTGGGTCG,-0.12 kcal/mol
11,TTGTGCACGTGATTTT,0.1 kcal/mol
12,GGGAGCACGTGTAGTA,-0.19 kcal/mol
13,GATTGCACGTGTTGAA,0.1 kcal/mol
14,GGGCTCACGTGATCGG,0.42 kcal/mol
15,ATTATCACGTGTTTCT,0.06 kcal/mol
16,CGGTTCACGTGGAGTT,0.19 kcal/mol
17,GTTTCCACGTGGCGTG,0.05 kcal/mol
18,TCTATCACGTGGTTAG,-0.07 kcal/mol
19,TATGACACGTGATTGA,0.1 kcal/mol
20,TGTGTCACGTGTGCAC,0.02 kcal/mol
21,AAGATCACGTGTGGTC,0.32 kcal/mol
22,ATCGTCACGTGGTTAT,0.02 kcal/mol
23,GGGGGCACGTGTGACG,0.01 kcal/mol

row,Sequence,relative binding free energy
1,GTCGGCACGTGTGGTT,0.15 kcal/mol
2,TTGGACACGTGGCGTT,-0.1 kcal/mol
3,GATTCCACGTGGTTTT,0.14 kcal/mol
4,ATTGGCACGTGTTGGA,-0.03 kcal/mol
5,TGTATCACGTGCGGGT,0.09 kcal/mol
6,AGATTCACGTGGATGA,0.33 kcal/mol
7,AATGTCACGTGCAGTG,0.08 kcal/mol
8,CGGTTCACGTGCGGTA,0.18 kcal/mol
9,GTGTTCACGTGGTAAT,0.19 kcal/mol
10,GTTTGCACGTGAGGAT,0.32 kcal/mol
11,TATGTCACGTGGCCGG,-0.09 kcal/mol
12,AGGACCACGTGGGCGG,-0.24 kcal/mol
13,ATAATCACGTGGGTCT,-0.02 kcal/mol
14,TATTGCACGTGGTTTA,-0.11 kcal/mol
15,GAGGGCACGTGGATGG,0.07 kcal/mol
16,CGTGGCACGTGTGGAC,0.1 kcal/mol
17,ATAATCACGTGGAGGC,0.21 kcal/mol
18,AGCGCCACGTGGGGGG,-0.41 kcal/mol
19,TTTAACACGTGGCATT,-0.09 kcal/mol
20,GTCGTCACGTGATAGT,0.13 kcal/mol
21,GTGTCCACGTGGTGAG,-0.03 kcal/mol
22,TGCTGCACGTGTATGA,0.09 kcal/mol
23,GGGTTCACGTGCCAGG,0.19 kcal/mol
